Source: PubChem BioAssay AID624418 (National Center for Advancing Translational Sciences (NCATS), 2012)
In all, about 410,000 compounds went through this assay and about 530 (0.13%) were called active. The shares of active, inactive and inconclusive entries below differ from those in the screen. Calls come from the whole dose curve; as a rule, active = well fitted inhibition curve with a large enough effect; inconclusive = small, poorly fitted or top-dose-only effect, or another doubt; inactive = no such curve, though single readings can be large or run the other way. A potency beside an inconclusive call is a rough fit, not a confirmed value.

Assay: qHTS of GLP-1 Receptor Inverse Agonists: Cytotox Screen
Details: HEK293 cAMP-luciferase reporter cells, luminescence, 24 h; activity change, negative = inhibition: at 38.3 µM (top of the series) unless noted
Summary of the method: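 MLSMR compounds, 24 hr on cells at 37 deg C/5% CO2; luminescence after luciferase reagent (12 min RT). Inhibition counted as the undesired cytotoxic outcome.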
% is set by controls: 0 for no effect and ±100 for the full control effect; potency is the fitted concentration of half-maximal effect.

Which Potency does the source give for `Cc1ccc(NS(=O)(=O)c2ccc(NC(=O)c3ccc(Br)o3)cc2)c(C)c1` here?
The Potency was inconclusive: 12.6 µM [inhibitor, single point].

With `Nc1c(-c2ccccc2)cnn1-c1cccc(C(F)(F)F)c1` as the molecule, how does the “activity change, negative = inhibition” value read?
The value was inactive: -11.2%.

Which “activity change, negative = inhibition” value does the source give for `N#Cc1nc(-c2ccco2)oc1N1CCN(c2ccccc2)CC1` here?
The value was inactive: -4.45%.

For `CCN1C(=O)c2ccc(C(=O)Nc3cccc(C(=O)O)c3)cc2C1=O`, which “activity change, negative = inhibition” value is on record?
The value was inactive: 21.1%.

For `CCN(CC)c1nn2c(=O)c(C(=O)NCc3cccc(C)c3)cnc2s1`, which “activity change, negative = inhibition” value is on record?
The value was inactive: -4.39%.

For `COCCN(C(=S)Nc1c(C)cc(C)cc1C)C(C)c1cccs1` (stereo not drawn), which Potency is on record?
The Potency was inconclusive: 28.2 µM [inhibitor, single point].

For `Clc1ccc(SCCOCCN2CCCCCC2)cc1`, which Potency is on record?
The Potency was inconclusive: 28.2 µM [inhibitor, single point].

Which “activity change, negative = inhibition” value does the source give for `O=C(Nc1ccccc1)c1ccc(NCC2CCCO2)c([N+](=O)[O-])c1` (stereo not drawn) here?
The value was inactive: 3.73%.

With `CCOC(=O)c1[nH]c(C)c(CCC(=O)NCc2ccccc2C)c1C` as the molecule, how does the “activity change, negative = inhibition” value read?
Its value is inactive: 2.99%.

With `COc1ccc(NS(=O)(=O)c2cccc(C(=O)N/N=C/c3c(F)c(F)c(F)c(F)c3F)c2)cc1` as the molecule, how does the Potency read?
Its Potency is inconclusive: 12.6 µM [inhibitor, single point].

With `O=C(N/N=C/c1cccc2cccnc12)c1ccccc1O` as the molecule, how does the Potency read?
Its Potency is inconclusive: 2.24 µM [inhibitor, full curve, poor fit].

With `CCC1CCCCN1S(=O)(=O)c1ccc(NC(=O)c2ccncc2)cc1` (stereo not drawn) as the molecule, how does the “activity change, negative = inhibition” value read?
Its value is inactive: -1.85%.

Which Potency does the source give for `COc1ccc(-c2noc(CN3CCN(c4cccc(Cl)c4)CC3)n2)cc1` here?
The Potency was inconclusive: 8.91 µM [inhibitor, partial curve, poor fit].

With `CC(=O)C(=Cc1ccc(Cl)cc1)C(=O)c1ccccc1` as the molecule, how does the Potency read?
Its Potency is inconclusive: 12.6 µM [inhibitor, single point].

With `C/C(=N\NC(=S)NCc1ccccc1)c1ccc(C)o1` as the molecule, how does the Potency read?
Its Potency is inconclusive: 5.01 µM [inhibitor, partial curve].

For `O=C(c1cc([N+](=O)[O-])ccc1N1CCCC1)N1CCCCC1`, which Potency is on record?
The Potency was inconclusive: 10 µM [inhibitor, partial curve].

With `COc1ccc(C[C@H]2CN3C(=NC[C@H]3Cc3ccccc3)N2CCNC(=O)CCC2CCCCC2)cc1` as the molecule, how does the Potency read?
The Potency was inconclusive: 28.2 µM [inhibitor, single point].

For `O=S(=O)(Nc1ccc(N=Nc2ccccc2)cc1)c1ccccc1`, which Potency is on record?
Its Potency is inconclusive: 12.6 µM [inhibitor, single point].

With `FC(F)(F)c1cnc(NNC(=S)Nc2ccc(Cl)cc2)c(Cl)c1` as the molecule, how does the Potency read?
Its Potency is inconclusive: 14.1 µM [inhibitor, partial curve, poor fit].

For `COc1ccc(C(OCC(O)CNCCc2ccccc2)c2ccc(OC)cc2)cc1` (stereo not drawn), which Potency is on record?
Its Potency is inconclusive: 28.2 µM [inhibitor, single point].

For `O=C(Nc1ccc(-c2cscn2)cc1)C1CCCN(Cc2ccccc2)C1` (stereo not drawn), which Potency is on record?
The Potency was inconclusive: 28.2 µM [inhibitor, single point].

Which “activity change, negative = inhibition” value does the source give for `CC(=O)c1c(C)[nH]c(C(=O)CN2C(=O)NC3(CCCCC3)C2=O)c1C` here?
Its value is inactive: -0.11%.

Which Potency does the source give for `CCSC1=C(C#N)C(c2ccccc2Cl)C(C(=O)c2cccs2)C(O)(C(F)(F)F)N1` (stereo not drawn) here?
Its Potency is inconclusive: 20 µM [inhibitor, single point].

For `CC[C@@H](CC1CCCCC1)C(=O)N(Cc1ccccc1)c1ccccc1`, which Potency is on record?
The Potency was inconclusive: 3.16 µM [inhibitor, partial curve, poor fit].

Which Potency does the source give for `CCN1C(N(C)CCc2cccs2)=N[C@@H](c2ccccc2)C(C(=O)OC)=C1C` here?
Its Potency is inconclusive: 3.55 µM [inhibitor, full curve, poor fit].

For `COc1ccc(Cl)cc1NC(=O)CN(C)CC(=O)Nc1ccccc1-c1ccccc1`, which Potency is on record?
The Potency was inconclusive: 11.2 µM [inhibitor, single point].

Which Potency does the source give for `CNc1ccc(N=Nc2cccc3ncccc23)cc1` here?
Its Potency is inconclusive: 5.62 µM [inhibitor, partial curve].

Which Potency does the source give for `COC(=O)c1ccc(COc2ccccc2/C=N/NC(N)=O)o1` here?
The Potency was inconclusive: 28.2 µM [inhibitor, single point].

Which Potency does the source give for `CCCCNCC(O)(c1ccc(Cl)cc1)c1ccc(Cl)cc1` here?
Its Potency is inconclusive: 20 µM [inhibitor, single point].

Which Potency does the source give for `CCCc1cc(C(=O)N/N=C/c2ccc(C)o2)c2ccccc2n1` here?
Its Potency is inconclusive: 2.24 µM [inhibitor, full curve].

Which “activity change, negative = inhibition” value does the source give for `O=C1CCN(Cc2nc(-c3ccc(Cl)cc3)no2)CCN1` here?
Its value is inactive: -0.735%.

For `CN(C)CCCNC(=O)N1c2ccccc2Sc2ccccc21`, which Potency is on record?
Its Potency is inconclusive: 28.2 µM [inhibitor, single point].

Which Potency does the source give for `Cc1cccc(-c2ocnc2C(=O)Nc2ccccc2NC(=O)c2ccccn2)c1` here?
Its Potency is inconclusive: 0.631 µM [inhibitor, full curve].

With `CC(C)COc1ccc(C(=O)CCN2CCCCC2)cc1` as the molecule, how does the Potency read?
Its Potency is inconclusive: 10 µM [inhibitor, single point].

With `O=C(NC(=S)Nc1cccc(Cl)c1)c1cncc(Br)c1` as the molecule, how does the Potency read?
Its Potency is inconclusive: 28.2 µM [inhibitor, single point].

Which Potency does the source give for `CCOC(=O)c1cnc2nc(SC)nn2c1N` here?
The Potency was inconclusive: 28.2 µM [inhibitor, single point].

With `Cc1cc(Nc2cccc(Cl)c2)nc2ccc(NC(=O)c3cccnc3)cc12` as the molecule, how does the Potency read?
The Potency was inconclusive: 10 µM [inhibitor, single point].

With `CCOC(=O)c1cc2c(nc1N)CCCC2` as the molecule, how does the “activity change, negative = inhibition” value read?
The value was inactive: -2.88%.

With `Cc1cc2nnc(SCC(=O)NC3CCCCC3)n2c(N)n1` as the molecule, how does the “activity change, negative = inhibition” value read?
Its value is inactive: 3.29%.

For `O=C(NCCCN1CCN(c2ccc(F)cc2)CC1)NC12CC3CC(CC(C3)C1)C2`, which Potency is on record?
The Potency was inconclusive: 28.2 µM [inhibitor, single point].

With `CNC(=S)N1N=C(c2ccc(C)cc2)CC1c1cc(OC)ccc1OC` (stereo not drawn) as the molecule, how does the Potency read?
Its Potency is inconclusive: 12.6 µM [inhibitor, single point].

For `CCC1CCCCN1C(=S)NC(=O)c1ccc(F)c(S(=O)(=O)N2CCOCC2)c1` (stereo not drawn), which “activity change, negative = inhibition” value is on record?
Its value is inactive: -29.8%.

With `COc1ccccc1NC(=O)c1cc2c(=O)oc3ccc(C)cc3c2s1` as the molecule, how does the “activity change, negative = inhibition” value read?
The value was inactive: 1.46%.

Which Potency does the source give for `O=C(c1cccc([N+](=O)[O-])c1)N1CCN(C/C=C/c2ccccc2)CC1` here?
The Potency was inconclusive: 28.2 µM [inhibitor, single point].

Which Potency does the source give for `O=C(Nc1ccc(Cl)cc1)N1CCCN(Cc2ccc(F)cc2)C1` here?
Its Potency is inconclusive: 28.2 µM [inhibitor, single point].

Which Potency does the source give for `Cc1cccc(NS(=O)(=O)c2ccc(NC(=O)CN(c3cc([N+](=O)[O-])ccc3C)S(C)(=O)=O)cc2)c1` here?
The Potency was inconclusive: 12.6 µM [inhibitor, single point].

For `C=Cc1ccc(Cn2nc(-c3ccc(C)c(S(=O)(=O)N(CC)CC)c3)ccc2=O)cc1`, which “activity change, negative = inhibition” value is on record?
Its value is inactive: -3.2%.

For `CCOc1ccccc1NC(=O)Cn1nnc2sc(-c3ccccc3)cc2c1=O`, which “activity change, negative = inhibition” value is on record?
The value was inactive: -0.296%.

With `COc1ccc2cc(C(=O)C3CCCN(Cc4ccccn4)C3)ccc2c1` (stereo not drawn) as the molecule, how does the Potency read?
The Potency was inconclusive: 7.08 µM [inhibitor, partial curve, poor fit].

For `CN1CCN(CC(=O)c2cc(C(C)(C)C)c(O)c(C(C)(C)C)c2)CC1`, which Potency is on record?
Its Potency is inconclusive: 28.2 µM [inhibitor, single point].

For `S=C(Nc1cccnc1)Nc1ccccc1Br`, which activity change, negative = inhibition is on record?
The activity change, negative = inhibition was inactive: -1.48% [at 0.307 µM].

With `S=C(NCCc1ccccc1)N/N=C/c1ccc(Cl)cc1` as the molecule, how does the Potency read?
The Potency was inconclusive: 11.2 µM [inhibitor, single point].

For `CN(C)c1ccc(C2CC(=O)NC3=C2C(=O)CC(C)(C)C3)cc1` (stereo not drawn), which Potency is on record?
The Potency was inconclusive: 0.562 µM [inhibitor, full curve, poor fit].

For `O=C(NC1CCN(Cc2ccccc2)CC1)c1cn(-c2ccccc2)nc1-c1cccnc1`, which Potency is on record?
The Potency was inconclusive: 28.2 µM [inhibitor, single point].

With `CC(=O)N1CCc2c(sc(NC(=O)c3ccc([N+](=O)[O-])o3)c2C(N)=O)C1` as the molecule, how does the Potency read?
The Potency was inconclusive: 3.16 µM [inhibitor, partial curve, poor fit].

For `O=c1c(S(=O)(=O)c2ccccc2)cn(Cc2ccccc2)c2cc(N3CCOCC3)c(F)cc12`, which “activity change, negative = inhibition” value is on record?
Its value is inactive: 1.36%.

With `CC(=NNC(=S)N1CC2CCC(CC2)C1)c1ccccn1` as the molecule, how does the Potency read?
The Potency was active: 6.31 µM.

Which “activity change, negative = inhibition” value does the source give for `Cn1nnnc1SCc1c(F)cccc1F` here?
The value was inactive: -3.64%.

For `C#CCOCCOCCOCCNc1nc(N2CCN(C(=O)[C@H]([C@@H](C)CC)n3cc([C@@H](N)Cc4ccc(O)cc4)nn3)CC2)nc(N2CCN(C(=O)[C@H]([C@@H](C)CC)n3cc([C@@H](N)Cc4ccc(O)cc4)nn3)CC2)n1`, which Potency is on record?
Its Potency is inconclusive: 0.501 µM [inhibitor, full curve, poor fit].

For `C(=N\n1cnnc1)/c1ccc(N2CCOCC2)s1`, which Potency is on record?
The Potency was inconclusive: 17.8 µM [inhibitor, single point].

Which Potency does the source give for `O=C(Nc1ccc2c(c1)Cc1ccccc1-2)c1ccc(Br)o1` here?
The Potency was inconclusive: 10 µM [inhibitor, single point].

Which Potency does the source give for `NC1=C(c2ccc([N+](=O)[O-])cc2)C(=O)CO1` here?
Its Potency is inconclusive: 10 µM [inhibitor, partial curve, poor fit].

With `CCN(CC)c1ccc2c(cc1=O)[C@@H](NC)CCc1cc(OC)c(OC)c(OC)c1-2` as the molecule, how does the Potency read?
The Potency was inconclusive: 2.82 µM [inhibitor, partial curve, poor fit].

With `COc1ccc(CNCc2cn(-c3cccc(F)c3)nc2-c2ccc(C)o2)cc1` as the molecule, how does the “activity change, negative = inhibition” value read?
Its value is inactive: 8.43%.

With `Cc1ccccc1-c1nc2c3ccccc3nc(=S)n2[nH]1` as the molecule, how does the Potency read?
Its Potency is inconclusive: 0.794 µM [inhibitor, full curve, poor fit].

With `CCc1ccccc1Nc1nc2ccccc2n1CC` as the molecule, how does the “activity change, negative = inhibition” value read?
The value was inactive: -3.97%.

Which Potency does the source give for `Cc1ccc(/C=C/c2ccc(N(C)C)cc2)[n+](C)c1` here?
The Potency was inconclusive: 7.94 µM [inhibitor, partial curve].

Which Potency does the source give for `C=CCN1C(=O)C(O)(CC(=O)c2ccco2)c2cc(Br)ccc21` (stereo not drawn) here?
The Potency was inconclusive: 28.2 µM [inhibitor, single point].
